Reference: PubChem BioAssay AID1508623 (National Center for Advancing Translational Sciences (NCATS), 2021)
Screen size: about 48,000 compounds; about 450 (0.94%) were called active. Another 19% or so got no clear call; they are omitted. Calls follow the shape of the dose curve; as a rule, active = well fitted inhibition curve with a large enough effect; inconclusive = small, poorly fitted or top-dose-only effect; inactive = no such curve, though single readings can be large or run the other way. This is one part of the list.

Test: Primary qHTS for Identification of Small Molecule Inhibitors of Huntingtin Promoter Activity; also: nearly all actives have a fitted effect of over 50% in size
Details: HEK293 HTT promoter firefly luciferase reporter (activity 0% = vehicle and -100% = no light), 24 h; series mostly up to 57.5 µM; activity change, negative = inhibition: at the top concentration
In short: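 Quantitative HTS used concentration series of up to 57.5 uM final on HEK293 luciferase reporter cells, 24 h at 37 degrees C. Readout was Dual-Glo firefly luminescence.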

Activity change, negative = inhibition, inactive:
COc1ccc(NC(=O)CSc2oc(-c3ccc(C)cc3)nc2S(=O)(=O)c2ccc(C)cc2)c(OC)c1 -17.2%, CCN(CCCNC(=O)c1cc2cc3cc(OC)ccc3nc2s1)c1cccc(C)c1 0.897%, Cc1cc2c(cc3c(SCc4ccc(Cl)cc4)nnc(C)n32)o1 -9.43%, Cc1cccc(N2CCN(C(=O)c3nn(C)c4c3CSc3ccccc3-4)CC2C)c1 (configuration not stated) -22%, COc1ccc2c(c1)c1c(c(=O)n(-c3cccc(C)c3)c(=O)n1CC(=O)Nc1c(C)cc(C)cc1C)n2C -7.47%, Cc1cn(C)c(CC(=O)NCc2ccc(F)cc2)c1C(=O)O -9.8%, Cc1cc(C)cc(NC(=O)CN2C(=O)COc3ccc(S(=O)(=O)Nc4ccccc4)cc32)c1 -9.1%, CCc1cccc(NC(=O)CNS(=O)(=O)c2ccc3nc(C)sc3c2)c1 -2.46%, CCOC(=O)c1ccccc1NC(=O)CSc1nc2ncccc2o1 -5.5%, Cc1ccc2nc(-c3ccncc3)c(Nc3ccccc3C)n2c1 -6.82%, CC1=C(c2ccc(C)cc2)S(=O)(=O)N=C1N1CCN(c2ccccc2)CC1 -5.4%, CCC(C)NC(=O)c1cn(CC)c2ccc(S(=O)(=O)N3CCCCC3)cc2c1=O (configuration not stated) 10.2% [at 11.5 µM], CCn1cc(C(=O)NCc2ccccc2)c(=O)c2cc(S(=O)(=O)N3CCCCC3)ccc21 11.6% [at 11.5 µM], Cc1ccc(NS(=O)(=O)c2ccc3c4c(cccc24)C(=O)N3)c(C)c1 -21.9%, Cc1ccc(C(NC(=O)Cc2cccs2)C(=O)Nc2ccc(C(C)C)cc2)cc1 (configuration not stated) -5.76%, CN(Cc1ccccc1)S(=O)(=O)c1ccc(F)c(C(=O)Nc2ccccc2C(F)(F)F)c1 -26.1%, Cc1cccc(-c2nc3c4ccccc4nc(NCc4ccccc4Cl)n3n2)c1 46.5%, O=C(COc1ccccc1)N(Cc1cccnc1)c1nc2ccc(Cl)cc2s1 -3.74%, O=C(Nc1ccc(N2CCC(N3CCCCC3)CC2)c(C(=O)O)c1)c1ccccc1 -7.44%, CNS(=O)(=O)c1cn(CC(=O)N2CCN(c3ccc(OC)cc3)CC2)cc1S(=O)(=O)NC 11.5%, CC(C)NC(=O)c1ccc(Cn2c(=O)c3cccn3c3cccnc32)cc1 -5.6%, COc1ccc(CC(=O)NC2CC(=O)N(c3ccc4c(c3)OCCO4)C2)cc1 (configuration not stated) -10.7%, Nc1c(C(=O)Nc2cccc(Cl)c2)sc2nc3c(cc12)CN(Cc1ccccc1)CC3 -22.5%, CCOC(=O)c1c(NC(=O)C(C)Sc2cn(CCNC(=O)c3ccc(OC)c(OC)c3)c3ccccc23)sc2c1CCC2 (configuration not stated) -27.1%, CCOCCCn1c(=N)c(S(=O)(=O)c2ccc(C)cc2)cc2c(=O)n3ccccc3nc21 1.23%, O=C(NCCC1=CCCCC1)c1ccc2c(c1)N(Cc1ccc(F)cc1)C(=O)c1ccccc1S2(=O)=O -23.5%, O=C(CSc1nncn2c1cc1sccc12)Nc1ccccc1C(F)(F)F -23.2%, CCOC(=O)c1c(C)oc2nc(C)nc(NCc3ccc(C)cc3)c12 7.87%, CCN1CCN(Cc2c(O)ccc3c(=O)c(Oc4ccccc4Cl)c(C(F)(F)F)oc23)CC1 -16.6%, CO[C@]1(NC(=O)CSC(F)F)C(=O)N2C(C(=O)O)=C(CSc3nnnn3CCO)CO[C@H]21 7.29%, COCCCNc1nc2c(-c3ccccc3)nnn2c2ccccc12 -20.8%, COC(=O)c1ccccc1NC(=O)c1cc2nc(-c3ccccc3)cc(-c3ccccc3)n2n1 -1.27%, Cc1ccccc1C(=O)NCC(c1cccnc1)N1CCc2ccccc21 (configuration not stated) -25.3%, COc1ccc(NC(=O)C2(c3cccs3)CCOCC2)cc1Cl -8.3%, COc1cccc(N2CCN(C(=O)c3c(C)oc4ncnc(N5CCCCC5)c34)CC2)c1 -22.6%, COC(=O)CCCCC(CCSS/C(CCO)=C(\C)N(C=O)Cc1cnc(C)nc1N)SC(C)=O (configuration not stated) -3.95%, Cc1ccc(-c2nnc(Nc3ccc(O)cc3)c3ccccc23)cc1S(=O)(=O)NCc1nc2ccccc2[nH]1 -6.76% [at 11.5 µM], O=C1CC(=O)Nc2cc(S(=O)(=O)N3CCOc4ccccc43)ccc2N1 -15.8%, CC(C)CN(CCCNC(=O)CN1C(=O)COc2ccc(S(=O)(=O)N3CCCCCC3)cc21)CC(C)C -12%, COc1cc(NC(=O)CSc2nc(C)c(C(=O)Nc3ccccc3)c(-c3ccc(OC)c(OC)c3)c2C#N)c(OC)cc1Cl -25.6%, Cc1ccc(Cl)cc1N1CCN(CCCNc2ncnc3onc(-c4ccc(F)cc4)c23)CC1 -6.16%, COc1ccccc1CNC(=O)CN1C(=O)CSc2ccc(S(=O)(=O)N(C)C)cc21 -7.71%, O=C(CCNS(=O)(=O)c1ccc2c(c1)CCN2C(=O)C1CC1)N1CCN(c2ccccc2F)CC1 -43.1%, CCOc1ccc(S(=O)(=O)N2CCN(c3ccc(Cl)c(Cl)c3)CC2)c2ccccc12 -1.88%, CCCn1c(CCC(=O)Nc2cc(Cl)c(OC)cc2OC)nc2cccnc21 -15.7%, Cc1ccc(C)c(NC(=O)CSc2ncc3c(n2)-c2ccc(Cl)cc2N(C)S3(=O)=O)c1 -0.814%, COc1ccc(NC(=O)CC2C(=O)N(c3ccc(C)cc3)C(=O)N2C2CCCCC2)cc1 (configuration not stated) -15.5%, O=C(CCSCc1ccccc1Cl)N1CCN(c2cccc(Cl)c2)CC1 -18.4%, CCn1nc(-c2ccccc2)c(-c2ccccc2)c(C(=O)Nc2nc(C)c(C(=O)N(C)C)s2)c1=O 4.89%, O=C(O)C1CCC1 1.21%, CCc1nc2cccnc2n1-c1ccc(CC(=O)Nc2ccc(C)cc2)cc1 -26.4%, O=C(Cn1c(=O)n(-c2ccccc2Cl)c(=O)c2sc3ccccc3c21)N1CCCC1 -13.1%, CCOc1ccc(CNC(=O)c2cnc3sc(N(CC)CC)nn3c2=O)cc1OC -2.83%, Cc1cc(C)cc(NC(=O)CCc2nnc3n(CC(C)C)c(=O)c4ccccc4n23)c1 0.36%, CC(C)N(Cc1ccccc1)C(=O)CN1C(=O)COc2ccc(S(=O)(=O)NC3CCCC3)cc21 -7.78%, Nc1cccc2c1CN(C1CCC(=O)NC1=O)C2=O (configuration not stated), Cc1ccc(NC(=O)CSc2nc3nccnc3c(=O)n2CCc2c[nH]c3ccccc23)cc1 -11.7%, CCOC(=O)c1ccc(OCCN2C[C@H](O)[C@@H](O)[C@H](O)[C@H]2CO)cc1 -0.415%, CCN(C(=O)CSc1nc2ccccc2n1CC(=O)Nc1ccccc1C)c1ccccc1 -2.77%, COc1cc(CNc2ccc3[nH]c(=O)[nH]c3c2)ccc1OCc1ccccc1F -22.4%, COc1ccc(-n2ccn(Cc3ccccc3Cl)c(=O)c2=O)cc1OC -9.4%, CN(C)c1ccc(C(CNS(=O)(=O)c2ccc(Br)cc2)N2CCCC2)cc1 (configuration not stated) -2.69%, CC(C)Cc1nn2c(=O)cc(COC(=O)c3ccc4c(c3)OCO4)nc2s1 -22.4%, CCOC(=O)c1cc2c(=O)n3ccccc3nc2n(CCCOC)c1=NC(=O)C(C)(C)Oc1ccc(Cl)cc1 -3.96%, CC(=O)Nc1ccc(O)cc1, COc1ccc(CNC(=O)CSc2nc3ccsc3c(=O)n2Cc2ccccc2Cl)cc1 -30.5%, CCc1ccc(N2C(=O)CC(c3cc(OC)ccc3OC)C3=C2COC3=O)cc1 (configuration not stated) -24.7%, Cc1ccc(NC(=O)Cn2ncn3c(cc4ccccc43)c2=O)c(C)c1 -21.2%, CCOc1ccc(C2CC(=O)n3nc(-c4ccc(C)cc4)nc3S2)cc1 (configuration not stated) -0.394%, COc1ccccc1CNC(=O)Cc1csc2nc(-c3ccc(Cl)cc3)cn12 -26.5%, CCOc1cc(CNC(=O)c2ccc(C)c(NC(=O)c3nsc4ccccc34)c2)ccc1OC 1.98%, CC(NC(=O)c1ccc2c(c1)N(Cc1ccc(Cl)cc1)C(=O)c1ccccc1S2(=O)=O)c1ccccc1 (configuration not stated) -10.2%, CCOc1cc2sc(N3CCC(C(=O)Nc4ccc(C)cc4)CC3)nc2cc1Br 85.1%, CCCCCn1c(=N)c(S(=O)(=O)c2ccccc2)cc2c(=O)n3ccccc3nc21 7.23%, CCOc1ccc(CCNC(=O)Cn2nc(CC)n3c(cc4sc(CC)cc43)c2=O)cc1OCC -15.3%, O=c1oc2c(CN3CCOCC3)c(O)ccc2cc1-c1ccc(Cl)cc1 20.7%, CCOC(=O)c1sc(NC(=O)c2nc3ncccn3n2)c(C(=O)OC)c1C -2.6% [at 11.5 µM], CCc1ccc(CSc2nc(-c3ccc(OC)cc3)nc3c2Cc2c(CO)cnc(C)c2O3)cc1 -12.7%, COc1ccc(S(=O)(=O)c2cn(Cc3ccccc3)c3cc(N4CCCC4)c(F)cc3c2=O)cc1 -6.69%, COc1ccc(CCNC(=O)CCCCn2c(=O)c3ccccc3n(CC(=O)Nc3ccccc3C)c2=O)cc1OC 0.636%, CCc1ccccc1NC(=O)Cn1c(=O)nc(-c2ccccc2)c2ccccc21 -3.09%, COc1ccc(CCNC(=O)CCn2c(=O)c3ccccc3n(Cc3ccc(Cl)cc3)c2=O)cc1OC -8.31%, CCn1c2c(c(=O)n3ncc(C(=O)Nc4cccc(Cl)c4C)c13)CN(Cc1ccc(OC)cc1)CC2 1.62%, CCOC(=O)c1c(C)[nH]c(C)c1S(=O)(=O)N1CCC(C(=O)NCc2ccc(C)cc2)CC1 15.6%, Cc1cc(C)cc(NC(=O)CSc2nncn3c2cc2occc23)c1 -20.9%, CCCn1c(SCC(O)c2cccc(OC)c2)nc2ccccc21 (configuration not stated) -15.1%, COc1ccccc1C(=O)NC1(C(F)(F)F)C(=O)Nc2c1c(=O)[nH]c(=O)n2CCc1ccccc1 (configuration not stated) -12.8%, Cc1ccc(C)c(CN2CCCN(Cc3cc(C)ccc3C)S2(=O)=O)c1 -12.5%, Cc1ccc(OCc2nc(-c3ccc(C(=O)N4CCN(c5ccc(Cl)cc5)CC4)cc3)oc2C)cc1 -22.6%, CC(C)CCNC(=O)CSc1c2c(nc3ccc(Cl)cc13)CCCC2 -21.1%, Cc1cccc(-c2nc(SCC(=O)Nc3cccc(C(F)(F)F)c3)n3[nH]c(=O)cc3n2)c1 -23.7%, CCOc1ccc(CNC(=O)C2CCCN(S(=O)(=O)c3ccc4c(c3)CCCC(=O)N4)C2)cc1 (configuration not stated) -30.3%
